Assay results from PubChem BioAssay (NCATS).
Inconclusive results, whose numbers are uncertain, are shown with a selection of clear calls. For part of these data: No potency is given beside an inconclusive call; the fits are too rough. Activity calls are given as the source filed them. Unless noted, calls follow the shape of the dose curve; as a rule, active = well fitted curve in the direction sought with a large enough effect; inconclusive = small, poorly fitted or top-dose-only effect, or another doubt; inactive = no such curve, though single readings can be large; an effect the other way counts as inactive or inconclusive.

What was measured:
[1] = biological target: Estrogen receptor (Homo sapiens) (UniProt P03372); assay: qHTS assay for small molecule agonists of estrogen receptor alpha signaling (AID 588514; calls by dose curve;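 also: 0% = vehicle only and 100% = reference agonist; nearly all actives have a fitted effect of over 70% in size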); details: ER-alpha-UAS-bla HEK293, beta-lactamase ratio, 18 h; activation: at 76.8 µM (top of the series), percent of full estradiol response, vehicle zero
Chain of UniProt P03372 (P03372 whole entry, looked up): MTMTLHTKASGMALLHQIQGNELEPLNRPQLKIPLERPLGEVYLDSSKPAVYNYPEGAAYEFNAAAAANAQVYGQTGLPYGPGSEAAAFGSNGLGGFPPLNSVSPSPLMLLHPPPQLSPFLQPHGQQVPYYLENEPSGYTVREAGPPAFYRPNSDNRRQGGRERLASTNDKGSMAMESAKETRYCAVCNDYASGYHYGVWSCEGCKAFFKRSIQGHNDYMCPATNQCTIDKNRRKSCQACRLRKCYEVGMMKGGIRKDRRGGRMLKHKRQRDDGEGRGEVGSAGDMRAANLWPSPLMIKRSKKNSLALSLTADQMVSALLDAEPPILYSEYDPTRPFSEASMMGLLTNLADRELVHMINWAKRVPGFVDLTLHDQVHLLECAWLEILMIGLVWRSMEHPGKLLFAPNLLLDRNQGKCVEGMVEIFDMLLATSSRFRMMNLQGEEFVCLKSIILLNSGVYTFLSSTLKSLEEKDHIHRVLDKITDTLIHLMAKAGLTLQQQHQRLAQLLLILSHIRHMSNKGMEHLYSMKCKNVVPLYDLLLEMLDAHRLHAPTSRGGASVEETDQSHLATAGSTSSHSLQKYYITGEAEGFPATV
Summary of the method: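 Reporter-gene assay. […] controls beta-lactamase in HEK 293 GripTite cells; after 18 hrs with compound, CCF4 substrate is added for 2 hrs and fluorescence is read.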

[2] = biological target: Thyroid hormone receptor beta (Homo sapiens) (UniProt P10828); assay: qHTS assay for small molecule agonists of thyroid hormone receptor beta signaling (AID 588545; calls by dose curve;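 also: 0% = DMSO only and 100% = 10 nM T3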); details: TR-UAS-bla GripTite HEK 293, beta-lactamase ratio, agonist mode, 18 h; activation: at 76.7 µM, percent of T3 response, DMSO as zero
Chain of UniProt P10828 (P10828 whole entry, looked up): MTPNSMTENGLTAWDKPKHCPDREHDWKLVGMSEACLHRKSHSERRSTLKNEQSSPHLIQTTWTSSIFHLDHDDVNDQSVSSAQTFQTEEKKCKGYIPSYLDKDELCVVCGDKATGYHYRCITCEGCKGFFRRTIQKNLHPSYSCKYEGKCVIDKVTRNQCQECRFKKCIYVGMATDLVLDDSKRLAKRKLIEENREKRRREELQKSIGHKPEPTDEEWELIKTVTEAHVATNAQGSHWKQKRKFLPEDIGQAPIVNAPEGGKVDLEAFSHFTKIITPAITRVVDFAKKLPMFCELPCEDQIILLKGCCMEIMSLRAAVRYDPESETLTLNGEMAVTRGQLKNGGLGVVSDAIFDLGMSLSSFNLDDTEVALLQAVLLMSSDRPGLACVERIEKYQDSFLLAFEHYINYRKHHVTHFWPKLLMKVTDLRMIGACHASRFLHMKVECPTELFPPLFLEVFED
Summary of the method: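 TR-UAS-bla GripTite HEK 293 cells (2500/well, medium with 2% charcoal/dextran FBS) were treated in agonist mode for 18 h at 37 C, titrated. Beta-lactamase was read by CCF4 ratio after 2 h; normalized to 10 nM T3 (100%) and DMSO, Hill-fitted for EC50 and efficacy.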

[3] = biological target: Cytochrome P450 2D6 (Homo sapiens) (UniProt P10635); assay: qHTS for inhibitors of CYP2D6 against the NCATS DSHEA and TCM libraries (AID 1919972); also: potency is read from the fitted curve at half-maximal effect; as to activity change, negative = inhibition: % is scaled to controls: 0 for no effect and ±100 for the full control effect
Chain of UniProt P10635 (P10635 whole entry, looked up): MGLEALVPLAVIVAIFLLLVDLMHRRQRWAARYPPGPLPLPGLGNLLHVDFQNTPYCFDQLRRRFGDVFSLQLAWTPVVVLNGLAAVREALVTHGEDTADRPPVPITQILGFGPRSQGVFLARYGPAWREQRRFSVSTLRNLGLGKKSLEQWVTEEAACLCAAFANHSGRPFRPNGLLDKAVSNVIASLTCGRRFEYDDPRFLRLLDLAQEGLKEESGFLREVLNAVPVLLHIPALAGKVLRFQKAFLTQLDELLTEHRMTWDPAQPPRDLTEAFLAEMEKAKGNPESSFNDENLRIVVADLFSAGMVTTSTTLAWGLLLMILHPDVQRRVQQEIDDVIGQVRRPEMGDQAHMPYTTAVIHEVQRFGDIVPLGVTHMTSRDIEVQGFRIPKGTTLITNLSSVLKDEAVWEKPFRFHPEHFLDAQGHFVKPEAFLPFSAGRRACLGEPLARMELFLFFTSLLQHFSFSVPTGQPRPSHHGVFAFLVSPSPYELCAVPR
Summary of the method: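 Steps: enzyme plus luciferin substrate dispensed; test substances pinned; 15 min RT; 1x NADPH regenerating solution added, 30–45 min RT protected from light; detection reagent, 30 min RT; luminescence measured. Minus-enzyme wells as background.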

[4] = biological target: Cytochrome P450 2C19 (Homo sapiens) (UniProt P33261); assay: qHTS for inhibitors of CYP2C19 against the NCATS DSHEA and TCM libraries (AID 1919974);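 also: luminescence from luciferin released by CYP2C19 oxidation of a pro-luciferin substrate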; also: potency is read from the fitted curve at half-maximal effect; as to activity change, negative = inhibition: % is scaled to controls: 0 for no effect and ±100 for the full control effect
Chain of UniProt P33261 (P33261 whole entry, looked up): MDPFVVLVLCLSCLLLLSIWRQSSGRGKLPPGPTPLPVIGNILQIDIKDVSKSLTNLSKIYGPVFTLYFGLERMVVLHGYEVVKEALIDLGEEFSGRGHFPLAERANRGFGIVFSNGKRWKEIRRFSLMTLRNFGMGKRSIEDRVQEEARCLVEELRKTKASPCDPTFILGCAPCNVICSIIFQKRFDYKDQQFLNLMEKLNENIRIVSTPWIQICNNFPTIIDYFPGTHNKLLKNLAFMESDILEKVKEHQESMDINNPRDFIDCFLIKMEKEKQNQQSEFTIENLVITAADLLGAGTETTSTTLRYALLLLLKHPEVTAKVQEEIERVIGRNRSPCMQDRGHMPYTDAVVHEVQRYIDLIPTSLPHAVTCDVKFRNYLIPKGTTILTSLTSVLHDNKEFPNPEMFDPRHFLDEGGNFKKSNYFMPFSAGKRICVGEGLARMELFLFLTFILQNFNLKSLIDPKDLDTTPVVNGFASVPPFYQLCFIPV
Summary of the method: (§1)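 Light output from converted D-luciferin reports remaining CYP activity. Compounds preincubate with enzyme and substrate for 15 min; NADPH regeneration (1x final) runs the reaction for 30-45 min.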

[5] = biological target: Cytochrome P450 1A2 (Homo sapiens) (UniProt P05177); assay: qHTS for inhibitors of CYPIA2 against the NCATS DSHEA and TCM libraries (AID 1919976); also: potency is read from the fitted curve at half-maximal effect;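 as to activity change, negative = inhibition: light from luciferin formed by CYP1A2 from a pro-luciferin substrate; % is scaled to controls: 0 for no effect and ±100 for the full control effect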
Chain of UniProt P05177 (P05177 whole entry, looked up): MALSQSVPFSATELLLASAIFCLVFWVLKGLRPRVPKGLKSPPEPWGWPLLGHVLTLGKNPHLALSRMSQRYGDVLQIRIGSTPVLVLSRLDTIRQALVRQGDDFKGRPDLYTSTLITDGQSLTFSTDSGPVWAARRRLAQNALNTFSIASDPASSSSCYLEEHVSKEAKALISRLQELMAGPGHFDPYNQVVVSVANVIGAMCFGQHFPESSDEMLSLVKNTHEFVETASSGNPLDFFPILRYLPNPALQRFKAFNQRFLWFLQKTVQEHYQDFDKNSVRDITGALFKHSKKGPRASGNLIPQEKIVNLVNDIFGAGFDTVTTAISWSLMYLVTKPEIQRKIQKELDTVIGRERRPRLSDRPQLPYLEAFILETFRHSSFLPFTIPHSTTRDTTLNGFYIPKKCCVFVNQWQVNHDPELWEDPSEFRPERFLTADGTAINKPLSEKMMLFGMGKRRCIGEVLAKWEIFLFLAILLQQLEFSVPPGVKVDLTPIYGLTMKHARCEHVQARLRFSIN
Summary of the method: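 In this quantitative HTS, inhibition of recombinant human CYP1A2 was measured as loss of luciferin-derived luminescence. Turnover ran 30-45 min at RT after NADPH regeneration solution was added.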

[6] = biological target: Cytochrome P450 2C9 (Homo sapiens) (UniProt P11712); assay: qHTS for inhibitors of CYP2C9 against the NCATS DSHEA and TCM libraries (AID 1919973); also: potency is read from the fitted curve at half-maximal effect
Chain of UniProt P11712 (P11712 whole entry, looked up): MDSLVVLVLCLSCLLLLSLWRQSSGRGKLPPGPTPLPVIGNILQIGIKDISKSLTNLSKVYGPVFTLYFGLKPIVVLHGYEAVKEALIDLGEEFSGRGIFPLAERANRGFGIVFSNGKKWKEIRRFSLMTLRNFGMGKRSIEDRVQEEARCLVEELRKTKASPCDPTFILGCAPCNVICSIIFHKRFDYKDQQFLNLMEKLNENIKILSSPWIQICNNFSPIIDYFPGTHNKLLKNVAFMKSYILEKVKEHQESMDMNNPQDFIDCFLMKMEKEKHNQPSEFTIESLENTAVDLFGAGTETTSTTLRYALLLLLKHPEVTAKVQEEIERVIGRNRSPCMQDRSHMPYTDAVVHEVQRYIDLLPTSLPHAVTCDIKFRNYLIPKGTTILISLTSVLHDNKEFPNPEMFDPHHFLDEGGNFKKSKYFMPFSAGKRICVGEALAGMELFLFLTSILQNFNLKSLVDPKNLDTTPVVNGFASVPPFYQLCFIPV
Summary of the method: as §1

[7] = biological target: Nuclear receptor subfamily 1 group I member 2 (Homo sapiens) (UniProt O75469); assay: Dual reporter qHTS for agonist of Pregnane X Receptor (hPXR) against the NCATS DSHEA and TCM libraries: Luminescence readout (AID 1920059); also: potency is read from the fitted curve at half-maximal effect
Chain of UniProt O75469 (O75469 whole entry, looked up): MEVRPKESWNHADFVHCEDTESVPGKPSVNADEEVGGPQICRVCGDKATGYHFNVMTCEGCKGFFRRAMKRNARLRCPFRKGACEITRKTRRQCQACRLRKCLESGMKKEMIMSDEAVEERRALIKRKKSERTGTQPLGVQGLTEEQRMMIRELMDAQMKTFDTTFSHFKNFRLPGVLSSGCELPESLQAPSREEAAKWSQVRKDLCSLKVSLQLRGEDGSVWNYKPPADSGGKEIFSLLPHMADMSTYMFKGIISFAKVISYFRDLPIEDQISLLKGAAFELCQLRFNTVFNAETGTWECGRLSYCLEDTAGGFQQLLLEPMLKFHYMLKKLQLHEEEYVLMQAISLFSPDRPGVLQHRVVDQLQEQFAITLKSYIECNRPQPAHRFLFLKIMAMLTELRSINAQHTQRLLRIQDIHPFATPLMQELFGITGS
Summary of the method: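 hPXR-Luc HepG2 cells, 2000/well in 5% charcoal-stripped FBS medium, attached 5 h, then exposed 24 h at 37C to compounds. Viability by CellTiter-Fluor, then luciferase luminescence with ONE-Glo.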

[8] = Dual reporter qHTS for antagonist of Pregnane X Receptor (hPXR) against the NCATS DSHEA and TCM libraries: Fluorescence Readout (AID 1920061); also: 0% is about no effect
Summary of the method: (§2)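 hPXR-Luc HepG2 cells exposed 24 h at 37 C to compounds with 2 uM rifampicin in antagonist mode; luciferase luminescence measured by ONE-Glo, with CellTiter-Fluor viability read beforehand.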

[9] = biological target: Tyrosyl-DNA phosphodiesterase 1 (Homo sapiens) (UniProt Q9NUW8); assay: Confirmation Assay for Inhibitors of Tyrosyl-DNA Phosphodiesterase (TDP1) (AID 489007); details: recombinant human TDP1 enzymatic activity, dose-response; also: potency is read from the fitted curve at half-maximal effect; nearly all actives have a fitted effect of over 40% in size
Chain of UniProt Q9NUW8 (Q9NUW8 whole entry, looked up): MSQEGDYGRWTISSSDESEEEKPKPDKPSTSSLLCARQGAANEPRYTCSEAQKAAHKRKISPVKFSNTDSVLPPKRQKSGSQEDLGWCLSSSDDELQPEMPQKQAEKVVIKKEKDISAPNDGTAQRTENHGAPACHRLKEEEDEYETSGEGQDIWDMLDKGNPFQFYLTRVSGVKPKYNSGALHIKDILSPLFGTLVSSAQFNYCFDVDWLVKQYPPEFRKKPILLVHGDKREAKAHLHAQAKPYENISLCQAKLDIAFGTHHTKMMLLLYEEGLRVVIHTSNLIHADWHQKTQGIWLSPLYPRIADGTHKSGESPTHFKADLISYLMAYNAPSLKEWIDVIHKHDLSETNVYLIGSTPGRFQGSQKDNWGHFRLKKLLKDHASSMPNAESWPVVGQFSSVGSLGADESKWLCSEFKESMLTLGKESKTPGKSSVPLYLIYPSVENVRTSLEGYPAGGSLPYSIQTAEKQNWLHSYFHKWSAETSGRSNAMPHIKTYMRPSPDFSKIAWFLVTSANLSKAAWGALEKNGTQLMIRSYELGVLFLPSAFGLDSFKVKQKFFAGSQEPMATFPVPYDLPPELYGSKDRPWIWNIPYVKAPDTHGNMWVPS
Summary of the method: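 Confirmation of primary-screen follow-ups in a qHTS format. Substrate cleavage by Tdp1 (1 nM) of a 3'-phosphotyrosine-FITC, 5'-biotin oligo (15 nM) was monitored as decreased AlphaScreen signal after a 5 min room-temperature reaction.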

[10] = biological target: Nuclear receptor subfamily 1 group I member 2 (Homo sapiens) (UniProt O75469); assay: Dual reporter qHTS for antagonist of Pregnane X Receptor (hPXR) against the NCATS DSHEA and TCM libraries: Luminescence Readout (AID 1920060); details: hPXR dual reporter cells, luciferase luminescence, antagonist mode; activity change, negative = inhibition: at 40 µM (top of the series) unless noted;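 also: HepG2 cells carrying hPXR luciferase reporter stimulated with rifampicin at 2 µM; 0% is about no effect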
Summary of the method: as §2
Tags tell the direction and shape of the fitted curve.

Compound: C=CC(C)(CCC=C(C)C)OC(C)=O (centres undefined)
- Potency [1]: inactive
- activation [2]: inactive: -4.11%
- Potency [3]: inactive
- Potency [4]: inactive
- Potency [5]: inactive

Compound: CCCCCCC/C=C/C(=O)CCc1ccc(O)c(OC)c1
- Potency [3]: active: 10 µM
- Potency [6]: active: 25.1 µM
- Potency [7]: inconclusive [activator, single point]

Compound: CCCCCCCCC[C@@H](O)CC(=O)CCc1ccc(O)c(OC)c1
- Potency [6]: inconclusive [inhibitor, single point]
- Potency [5]: inconclusive [inhibitor, partial curve, poor fit]
- Potency [7]: inconclusive [activator, partial curve]
- Potency [8]: inactive

Compound: CCCCCCCC/C=C\CCCCCCCCCCCC(=O)O
- Potency [9]: inconclusive [inhibitor, single point]
- Potency [6]: inconclusive [inhibitor, partial curve, poor fit]
- Potency [4]: inconclusive [inhibitor, partial curve]
- Potency [5]: inconclusive [inhibitor, partial curve, poor fit]

Compound: CC(=O)OC/C=C/c1ccccc1
- Potency [4]: inconclusive [inhibitor, partial curve]
- Potency [5]: active: 28.2 µM

Compound: O=C(O)[C@H]1O[C@@H](Oc2c(-c3ccc(O)c(O)c3)oc3cc(O)cc(O)c3c2=O)[C@H](O)[C@@H](O)[C@@H]1O
- Potency [6]: active: 14.1 µM
- Potency [5]: inconclusive [inhibitor, full curve]
- Potency [8]: inactive

Compound: CCC(/C=C/[C@@H](C)[C@H]1CCC2C3CC=C4C[C@@H](O)CC[C@]4(C)C3CC[C@@]21C)C(C)C (some centres undefined)
- Potency [10]: inactive

Compound: CC(C)c1ccc(C=O)cc1
- Potency [5]: inactive

Compound: C=C1C[C@]23CC[C@H]4[C@@](C)(CCC[C@@]4(C)C(=O)O)[C@@H]2CC[C@@]1(O[C@@H]1O[C@H](CO)[C@@H](O)[C@H](O)[C@H]1O[C@@H]1O[C@H](CO)[C@@H](O)[C@H](O)[C@H]1O)C3
- Potency [5]: inactive
